# From the BET-seq Pho4 binding data (Le et al. 2018)
# Some of the results follow. Values were computed here from the reads of four pooled replicates and scatter widely.
# Biological target: T1, Pho4 (S. cerevisiae) (UniProt P07270)
# T1 sequence: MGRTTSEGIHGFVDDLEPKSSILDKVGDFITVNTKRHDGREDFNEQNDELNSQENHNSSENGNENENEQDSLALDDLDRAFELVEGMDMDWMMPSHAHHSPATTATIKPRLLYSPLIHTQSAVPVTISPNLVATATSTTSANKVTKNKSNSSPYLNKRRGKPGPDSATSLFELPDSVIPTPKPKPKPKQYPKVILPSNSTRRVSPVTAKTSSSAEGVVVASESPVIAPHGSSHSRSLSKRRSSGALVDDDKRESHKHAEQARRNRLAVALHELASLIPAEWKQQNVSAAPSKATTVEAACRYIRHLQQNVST
# Experiment: relative binding free energy (BET-seq); higher = weaker binding
# Details: reference: library average
row,Sequence,relative binding free energy [kcal/mol]
1,GAGTGCACGTGTTCGT,-0.16
2,TATGACACGTGGGGAA,-0.17
3,GTTCACACGTGGGAGG,0.09
4,CTTTTCACGTGGGTAT,0.15
5,TGGGCCACGTGGTATG,-0.15
6,AGGACCACGTGGGGGT,-0.3
7,GCTTGCACGTGGGAGG,-0.1
8,TAGTGCACGTGATTCG,0.04
9,TGTGACACGTGGCGGA,0.08
10,TTTGTCACGTGATCGG,0.24
11,GTGGTCACGTGCGTTG,-0.01
12,ACATGCACGTGAGGTT,0.03
13,CATAACACGTGGGGGA,-0.12
14,GGTTGCACGTGTAGGT,0.12
15,TTAGTCACGTGTAGTC,0.24
16,GGAAGCACGTGTCTGG,0.02
17,ACGGTCACGTGGTATT,0.01
18,TAGAGCACGTGTTAAG,-0.17
19,ATTTGCACGTGCGTCT,-0.07
20,TAAGGCACGTGCGGGA,-0.28
21,TTTAGCACGTGGAAGT,0.04
22,GTGCGCACGTGGAGCT,0.06
23,GCCGTCACGTGTTAGG,0.3
24,AGGGTCACGTGAATGT,0.32
25,GTGGACACGTGTGGTC,0.07
26,TATTCCACGTGGTTGG,0.2

row,Sequence,relative binding free energy [kcal/mol]
1,ATTGGCACGTGTCGGT,-0.12
2,GTAGTCACGTGATATA,0.29
3,TGAGGCACGTGGTAAT,-0.15
4,TGCAGCACGTGGGAGT,-0.14
5,TAGTGCACGTGGGGGG,-0.16
6,TCTGTCACGTGTTGTG,0.06
7,GTACTCACGTGGTGTC,0.2
8,ATGAGCACGTGGTGGG,-0.15
9,GGGGCCACGTGGGTGA,-0.13
10,TGGGTCACGTGCGAAG,0.16
11,TTGAACACGTGTGATG,0.07
12,AAGTTCACGTGGTGGT,0.36
13,TTTTTCACGTGAGGGA,0.4
14,GTTTGCACGTGGTATT,0.04
15,AGGTTCACGTGTTAAT,0.24
16,ATATTCACGTGATTTG,0.35
17,GGTGTCACGTGTGCTG,0.06
18,GAATTCACGTGTAAGT,0.4
19,GAATACACGTGGGGTA,-0.19
20,TGTGGCACGTGAATTC,0.12
21,GGATGCACGTGCGAAG,0.15
22,GGCGTCACGTGGATTT,0.26
23,AGTTCCACGTGCTTGG,0.18
24,GATTTCACGTGGTTCA,0.32
25,TAGTTCACGTGTATCT,0.24
26,TTGCGCACGTGCCGGG,-0.27

row,Sequence,relative binding free energy [kcal/mol]
1,GTTGGCACGTGGCATG,-0.13
2,TCTTGCACGTGGGGGG,-0.09
3,GAGGACACGTGGTTAA,0.11
4,GGGGACACGTGGCAGA,-0.03
5,TGTGTCACGTGTGCTA,0.15
6,TAGCACACGTGGGTGA,-0.09
7,TATGTCACGTGTTAGC,0.11
8,TTTTACACGTGTGCAA,0.06
9,GACGTCACGTGGGGGT,0.01
10,TGTTGCACGTGTATGG,0.08
11,GGGGTCACGTGTCATT,0.11
12,GTTTACACGTGGCTGA,0.09
13,CAGGTCACGTGGAGGA,0.11
14,GGATTCACGTGAGTAT,0.38
15,GAAGGCACGTGTGTCG,-0.12
16,GGGAGCACGTGTGAGT,-0.03
17,GGGTGCACGTGGTTAT,-0.06
18,ATTTTCACGTGATGTA,0.4
19,GGTGGCACGTGGCTAA,-0.25
20,ATGTACACGTGTGCTT,0.04
21,TAGTGCACGTGGGCTG,-0.13
22,ATGAGCACGTGTGGAT,0.05
23,AGACTCACGTGGTGGT,0.03
24,GTTGTCACGTGGAAGA,0.06
25,GTTCGCACGTGGGGAT,-0.06
26,TTAAGCACGTGTTCAG,0.02

row,Sequence,relative binding free energy [kcal/mol]
1,TTTGGCACGTGGCGGT,-0.28
2,ATTTACACGTGGTGTA,0.08
3,TACGGCACGTGTCGTA,0.03
4,GGGGACACGTGGTGCG,-0.03
5,GGGGGCACGTGGCCCG,-0.21
6,TGGGCCACGTGTCTGG,-0.07
7,CGTATCACGTGATAGT,0.22
8,ATGGTCACGTGGCTAT,-0.11
9,TACTTCACGTGGTTAG,0.08
10,ACAGGCACGTGGATGG,-0.11
11,GAGCGCACGTGGTAGG,-0.06
12,CTACGCACGTGTTGGG,0.07
13,TGTCGCACGTGGGTGG,-0.23
14,TGGTGCACGTGTCTCT,0.01
15,AAGTGCACGTGTTGGT,-0.02
16,GTGAGCACGTGGGTCG,-0.07
17,ATTATCACGTGGGAAT,0.14
18,GGTCGCACGTGTGAGG,0
19,TAATTCACGTGGGTGT,0.2
20,AGAGACACGTGGGGTG,-0.15
21,GGAGGCACGTGTGTCT,-0.13
22,TGGGGCACGTGTTGAT,-0.14
23,TTTAGCACGTGGGGCC,-0.02
24,GGTGCCACGTGTTGTT,-0.13
25,GTATGCACGTGGGCTG,-0.08
26,GTAAGCACGTGCGGTA,-0.03

row,Sequence,relative binding free energy [kcal/mol]
1,AGCGGCACGTGAAAGG,0.08
2,AGATTCACGTGGGGGA,0.12
3,TATGACACGTGGTTTC,0.15
4,TATGTCACGTGAGTGC,0.19
5,TTTTTCACGTGCTTCA,0.18
6,TAATGCACGTGGGTTG,-0.16
7,GTTGGCACGTGGCGTA,-0.2
8,GTGCGCACGTGTGGTA,0.02
9,AAGCTCACGTGGGGGT,0.09
10,AAGTACACGTGTTAGT,0.01
11,TAAGGCACGTGGTAAA,-0.02
12,GGGTCCACGTGAATTT,0.38
13,ATAGGCACGTGCGGGA,-0.27
14,GGTTGCACGTGACTTA,0.09
15,GGACGCACGTGGTGAT,0.02
16,CTCTTCACGTGTGTTG,0.15
17,AAGCGCACGTGGGGTA,-0.31
18,CTTTGCACGTGTTCTG,-0.08
19,CATTTCACGTGCGGGT,0.41
20,CTCAGCACGTGGTGGG,-0.15
21,GGGAACACGTGAATGG,0.33
22,TGGTTCACGTGGAGGA,0.3
23,CAGTTCACGTGTATAT,0.33
24,AAATACACGTGGGTGT,-0.1
25,GCTGGCACGTGTTTGA,-0.03
26,CGGTTCACGTGGGACG,0.1

row,Sequence,relative binding free energy [kcal/mol]
1,GTACGCACGTGGTTGT,-0.11
2,ATTCTCACGTGTCGGG,0.22
3,AGTTGCACGTGTGCCG,0
4,ACGTTCACGTGGAAGG,0.23
5,TCGTGCACGTGCAGGT,-0.13
6,ATGTTCACGTGGGCGC,0.19
7,AGGGGCACGTGCGTAT,-0.11
8,TGGCACACGTGGTTGT,-0.03
9,TTTGGCACGTGTTCTA,-0.14
10,AGTAGCACGTGGGAGG,-0.2
11,ATGGCCACGTGGAGGG,-0.06
12,AATCACACGTGGGTGG,-0.07
13,GTATTCACGTGCGCGT,0.12
14,TATCTCACGTGGGCGG,0.02
15,TTTCGCACGTGGGAGA,-0.12
16,ATGTACACGTGTAGTT,0.03
17,ATAGTCACGTGTGACG,0.16
18,GTAAGCACGTGTTGGG,0.09
19,TAGGGCACGTGAGCAG,-0.02
20,TACAGCACGTGCGTGT,-0.06
21,GATGTCACGTGGCTGT,0.18
22,TGTCGCACGTGCTGGA,-0.07
23,TGGTACACGTGGTAAG,0.04
24,GTTTGCACGTGCAGAG,0.04
25,ATGGACACGTGTTTGT,0.02
26,AGATGCACGTGATGAA,0.25

row,Sequence,relative binding free energy [kcal/mol]
1,AATGTCACGTGTGTCG,0.05
2,GTCGGCACGTGGGCGC,-0.14
3,GGCTACACGTGTTTGG,0.13
4,ATAGGCACGTGGAGCG,-0.29
5,TTGGGCACGTGCGCTT,-0.2
6,TAGGACACGTGATGAT,0.11
7,CTGGTCACGTGGGGCC,-0.07
8,AGTTCCACGTGGTTGT,-0.02
9,CGAGGCACGTGTGTAG,-0.14
10,GTGTACACGTGCGAGG,-0.18
11,GGAGTCACGTGAAGAG,0.28
12,GTGTTCACGTGATCGG,0.36
13,CGTGGCACGTGTTTAT,-0.09
14,CTTGTCACGTGTTTGC,0.06
15,GGGGCCACGTGGCCGG,-0.32
16,TTGGTCACGTGGTCTG,0.1
17,TCTAGCACGTGGATGG,-0.07
18,TGATACACGTGGGGGC,-0.03
19,GGAGACACGTGCGTGT,-0.02
20,GGTAGCACGTGTGCAA,0.11
21,GTAGTCACGTGGGTAT,-0.03
22,GTGGCCACGTGTGTTT,0.2
23,GGATTCACGTGTAAAG,0.21
24,TAGGGCACGTGAATAT,0.06
25,GTGAACACGTGGGTAT,0.03
26,TAAGTCACGTGAGTTT,0.34

row,Sequence,relative binding free energy [kcal/mol]
1,GAAGTCACGTGCGGGG,0.12
2,GTGGTCACGTGCTCGG,-0.01
3,TCATGCACGTGATGTG,-0.01
4,GCTGGCACGTGCGTGG,-0.19
5,AATGACACGTGGGTGT,-0.01
6,GATTGCACGTGATTGG,0.17
7,CAAATCACGTGTGAGG,0.24
8,TGGTACACGTGAAGTG,0.26
9,CTGGTCACGTGAGATT,0.52
10,TAAGGCACGTGAATAG,0.22
11,CGTTGCACGTGATTAA,0.04
12,GCTGTCACGTGAAGTG,0.19
13,AGCCGCACGTGGAGGG,-0.22
14,CTTTTCACGTGTGGAA,0.25
15,AGGGCCACGTGGATAG,-0.1
16,TGGTTCACGTGGGATC,0.18
17,GGTGGCACGTGTGGCC,0.01
18,GGTGACACGTGGTCGG,0.02
19,ATTAGCACGTGGGGTG,-0.28
20,GGGGGCACGTGGGTTC,-0.2
21,GCGTACACGTGGGGCG,-0.22
22,CGGTTCACGTGGCTGG,0.22
23,TTTGGCACGTGACGGG,0.07
24,TTTTTCACGTGTGGAA,0.27
25,CAGTGCACGTGTAGTG,0.01
26,TATGTCACGTGAGGCA,0.21

row,Sequence,relative binding free energy [kcal/mol]
1,GTGCTCACGTGTTGGT,0.32
2,TTCAACACGTGGGGTT,-0.01
3,AATGTCACGTGTAAGA,0.15
4,TACTACACGTGGTGCG,0.26
5,TATGTCACGTGTCTTA,0.08
6,TTTAACACGTGTGCTT,-0.08
7,AAGTTCACGTGCCGGT,0.22
8,TATTACACGTGTTTTA,0.14
9,AATTTCACGTGGCAGG,0.26
10,TGATGCACGTGTGTCA,0
11,AGGTACACGTGTGGGT,0.07
12,CGAGTCACGTGGAATG,0.15
13,ACAGGCACGTGGGTGT,-0.33
14,TCGTGCACGTGGGCCG,-0.16
15,GAGAGCACGTGCGGTG,-0.09
16,CTAGACACGTGGTAGT,-0.12
17,GGTTGCACGTGTTAGC,0.17
18,ACTGTCACGTGGATGT,0.08
19,TGGGCCACGTGGTATA,-0.12
20,ATATACACGTGCTGGG,-0.11
21,ATTCTCACGTGTTGAG,0.19
22,TGGGACACGTGCTGGT,-0.04
